# Article PMC4336329 (PLoS ONE, 2015)
# Out of some 310,000 compounds screened, about 2,200 (0.71%) showed an effect of 50% or more. The effect is printed as a negative number. The list shows a part of the results.
# Target: human ether-à-go-go-related gene (hERG) potassium channel (human, UniProt Q12809)
# Assay: primary screen, population patch clamp on CHO cells stably expressing hERG
# Sequence of human ether-à-go-go-related gene (hERG) potassium channel (Q12809 whole entry, looked up): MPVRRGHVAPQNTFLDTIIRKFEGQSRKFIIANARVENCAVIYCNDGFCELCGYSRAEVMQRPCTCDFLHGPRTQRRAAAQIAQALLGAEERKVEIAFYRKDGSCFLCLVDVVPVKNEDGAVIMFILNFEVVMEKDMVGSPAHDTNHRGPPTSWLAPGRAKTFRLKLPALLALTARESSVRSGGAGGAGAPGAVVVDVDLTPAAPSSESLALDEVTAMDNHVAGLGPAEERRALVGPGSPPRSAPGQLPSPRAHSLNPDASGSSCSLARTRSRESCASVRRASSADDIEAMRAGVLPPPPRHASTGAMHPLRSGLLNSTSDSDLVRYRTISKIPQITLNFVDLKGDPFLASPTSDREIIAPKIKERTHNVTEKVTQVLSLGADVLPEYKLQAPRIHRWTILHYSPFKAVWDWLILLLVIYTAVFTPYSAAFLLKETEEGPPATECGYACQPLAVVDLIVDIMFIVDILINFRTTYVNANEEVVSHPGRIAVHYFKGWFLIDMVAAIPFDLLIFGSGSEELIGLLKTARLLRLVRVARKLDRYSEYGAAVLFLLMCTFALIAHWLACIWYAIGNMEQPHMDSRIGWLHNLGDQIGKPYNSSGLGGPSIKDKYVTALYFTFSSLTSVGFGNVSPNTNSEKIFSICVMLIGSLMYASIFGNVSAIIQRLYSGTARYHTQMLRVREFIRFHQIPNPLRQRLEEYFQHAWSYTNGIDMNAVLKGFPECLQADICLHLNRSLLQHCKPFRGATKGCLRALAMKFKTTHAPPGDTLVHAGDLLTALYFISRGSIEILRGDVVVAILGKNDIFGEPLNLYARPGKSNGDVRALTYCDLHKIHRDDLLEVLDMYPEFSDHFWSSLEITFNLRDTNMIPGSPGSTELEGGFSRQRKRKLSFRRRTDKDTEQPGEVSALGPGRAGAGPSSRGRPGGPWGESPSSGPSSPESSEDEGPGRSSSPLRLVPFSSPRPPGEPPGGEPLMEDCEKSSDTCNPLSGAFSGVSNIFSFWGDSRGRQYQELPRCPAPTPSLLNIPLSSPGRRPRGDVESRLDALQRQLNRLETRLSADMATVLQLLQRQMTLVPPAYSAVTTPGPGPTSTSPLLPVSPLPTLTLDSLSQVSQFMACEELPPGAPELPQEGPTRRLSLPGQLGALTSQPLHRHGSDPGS
row,SMILES,"hERG current change (%, negative = inhibition) at 1uM"
1,CCCCc1ccc(N2C(=NC(=O)C3CCCO3)SC3CS(=O)(=O)CC32)cc1 (centres unmarked),-14.1%
2,COCc1c(C(=O)N2CCc3ccccc32)oc2ccccc12,14.3%
3,Cc1ccc(N2C(=O)CC(Nc3ccccc3)C2=O)cc1 (centres unmarked),14.7%
4,O=C(O)Cc1ccc2c(c1)N(S(=O)(=O)c1cccs1)CC(C(=O)O)O2 (centres unmarked),16.9%
5,COc1ccc(CNc2ccc3cn[nH]c3c2)c(OC)c1OC,-1.25%
6,COC(=O)CSc1nc(N)c(C#N)c(-c2ccc(O)cc2)c1C#N,5.67%
7,COc1cc(/C=C(\C#N)C(=O)NCC2CCCO2)cc(OC)c1OC (centres unmarked),11.6%
8,O=C(CO)N/N=C/c1ccc(Cl)cc1,18.6%
9,CC(C)(C)C(=O)NC(=S)Nc1ccccc1N1CCCC1,4.94%
10,C[C@]12C=CC(=O)C=C1C=C[C@@H]1C2CC[C@]2(C)C(=O)CCC12 (some centres unmarked),-7.2%
11,Fc1ccc(CNC(=S)NC2CCCC2)cc1,16.8%
12,CCCc1nnc(NC(=O)CCC(=O)N2CCN(Cc3ccc(F)cc3)CC2)s1,9.42%
13,c1ccc(N=P(N2CCOCC2)(N2CCOCC2)N2CCOCC2)cc1,2.46%
14,Cc1ccc(NC(=O)C2CCCN(S(=O)(=O)c3cccc4cccnc34)C2)cc1 (centres unmarked),10.1%
15,OC1(C(F)(F)F)CC(c2ccc3ccccc3c2)=NO1 (centres unmarked),14.6%
16,CC1CCN(C(=O)COC(=O)C23CC4CC(CC(O)(C4)C2)C3)CC1,18.8%
17,Cc1ccc(C)n1-c1ccc(C(=O)NN)s1,1.46%
18,COC(=O)CCCCC1SCC2NC(=O)NC21 (centres unmarked),11.5%
19,CC(C)CSc1nsc(N)n1,19.8%
20,CCOC(=O)C1=C(N)n2c(s/c(=C/c3ccccc3)c2=O)=C(C(=O)OCC)C1c1ccccc1 (centres unmarked),13.1%

row,SMILES,"hERG current change (%, negative = inhibition) at 1uM"
1,COc1ccc(OCc2cc(-c3ccc(Cl)cc3)no2)cc1,11.6%
2,CC(=O)NC(CC(=O)OCC(=O)NCCc1ccccc1)c1ccccc1 (centres unmarked),19.7%
3,Cc1ccc(N(C)C(=O)c2ccc(CNc3c(N4CCC(C)CC4)c(=O)c3=O)cc2)cc1,10.2%
4,O=C(O)c1ccc(S(=O)(=O)c2ccc3c(c2)C(=O)N(CC2CCCO2)C3=O)cc1 (centres unmarked),18.8%
5,CN(Cc1ccccc1F)c1ccc(S(=O)(=O)N2CCCC2)cn1,-1.11%
6,Cc1ccsc1C1NC(=O)c2c(sc3c2CCCC3)N1 (centres unmarked),0.906%
7,C=CCNCC(=O)N1N=C(c2ccc3ccccc3c2)CC1c1ccc(OC)cc1.O=C(O)C(=O)O (centres unmarked),10.2%
8,CN(C)c1cc2c(cc1NC(=O)c1ccccc1Cl)n(C)c(=O)n2C,11.2%
9,O=C(N/N=C/c1ccccc1C(=O)O)c1cc(-c2ccc3c4c(cccc24)CC3)n[nH]1,12.9%
10,O=C(O)c1ccccc1C(=O)NCc1ccc(F)cc1,8.7%
11,COc1cccc(CNC(=O)C2CCCN(c3cnccn3)C2)c1 (centres unmarked),0.0106%
12,CCOC(=O)Cn1nc(C)c(NC(=O)c2ccc([N+](=O)[O-])c(C)c2)c1C,17.9%
13,NC(=O)c1ccsc1NC(=O)CN1C(=O)NC2(CCCCC2)C1=O,15.2%
14,CCC(CC)c1nnc(NC(=O)c2nc3nc(C)cc(C)n3n2)s1,6.33%
15,c1ccc2c(c1)nc1sccn12,-2.42%
16,CCc1ccccc1NC(=O)N1C2CCCC1CC(NC(C)=O)C2 (centres unmarked),21%
17,O=C1c2ccccc2C(=O)c2cc(S(=O)(=O)Nc3ccccc3)ccc21,6.97%
18,COc1ccc2cc(CCNC(=O)CCc3ccccc3)c(=O)[nH]c2c1,18.7%
19,O=C(NCc1ccc(Cl)cc1)C1CCCN1C(=O)Nc1ccccc1 (centres unmarked),-3.8%
20,Cc1ccc(C(=O)CNc2ccccc2)cc1,12.3%

row,SMILES,"hERG current change (%, negative = inhibition) at 1uM"
1,O=C(c1ccc(=O)oc1)N1CCN(C(c2ccccc2)c2ccccc2)CC1,3.15%
2,CCC(C)NC(=O)COC(=O)c1cc([N+](=O)[O-])ccc1Sc1nc(C)cs1 (centres unmarked),8.13%
3,Cc1ccc(S(=O)(=O)N2CCC(NC(=O)c3cccc(C)c3)CC2)cc1,9.02%
4,c1ccc(-c2cn3c(n2)-c2ccccc2C3)cc1,6.93%
5,CN(CC(=O)Nc1cccc(F)c1)C(=O)CN1C(=O)NC2(CCCC2)C1=O,4.92%
6,CC(C)(C)c1ccc(/C=N/NC(=O)Cc2c[nH]c3ccccc23)cc1,6.53%
7,CN(C)C(CNS(=O)(=O)c1ccc(Cl)cc1)c1cccnc1 (centres unmarked),15.7%
8,COc1ccccc1CC(=O)NC12CC3CC(CC(C3)C1)C2,15.9%
9,O=C1/C(=C\c2ccc(O)cc2)SC(=S)N1/N=C/c1ccc(O)cc1,8.88%
10,O=C(Cn1cnc2c(nnn2Cc2ccccc2F)c1=O)OCc1ccccc1,-8.47%
11,CCCOc1ccc(/C=N/NC(=O)c2c(-c3ccccc3)noc2C)cc1OC,2.63%
12,COC(=O)NNC(=O)c1ccc(C)cc1,-17.7%
13,CCCCCCCCN1[C@@H](CC(=O)OCC)c2ccc(C(F)(F)F)cc2S1(=O)=O,6.09%
14,O=S(=O)(c1ccc(Cl)cc1)n1cnc2ccccc21,12.4%
15,COc1cc2nc(N(C)CCCNC(=O)C3CCCO3)nc(N)c2cc1OC (centres unmarked),-0.911%
16,Cc1ccc(S(=O)(=O)CC(=O)Nc2ccc(Cl)cn2)cc1,1.04%
17,COc1ccccc1NC(=O)CSc1ccc(-c2ccco2)nn1,4.52%
18,CSc1nc2ccc(NC(=O)c3c(-c4ccccc4)noc3C)cc2s1,15.3%
19,Cc1ccc(OCC(=O)N2CC(C)OC(C)C2)c([N+](=O)[O-])n1 (centres unmarked),-5.22%
